Measured values as given in PubChem BioAssay AID588342 (National Center for Advancing Translational Sciences (NCATS), 2011).
In all, about 360,000 compounds went through this assay and about 25,000 (6.9%) were called active. The inconclusive results got no clear call from the source; some entries with a clear call stand among them for comparison. Calls follow the shape of the dose curve; as a rule, active = well fitted inhibition curve with a large enough effect; inconclusive = small, poorly fitted or top-dose-only effect; inactive = flat fitted curve, though single readings scatter. Potencies of inconclusive entries are doubtful fits and often do not repeat.
Also: nearly all actives have a fitted effect of over 55% in size.
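For activity change, negative = inhibition in this document: plate controls were vehicle for no effect and reference inhibitor for full effect.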
Potency is read from the fitted curve at half-maximal effect; tags tell the direction and shape of the fitted curve.

What follows are compounds tested against Luciferin 4-monooxygenase (Photinus pyralis) (UniProt P08659) (assay: qHTS profiling assay for firefly luciferase inhibitor/activator using purifed enzyme and Km concentrations of substrates (counterscreen for miR-21 project)). Details: purified FLuc, luminescence inhibition; series mostly up to 57.5 µM; activity change, negative = inhibition: at the top concentration.
Sequence of UniProt P08659 (P08659 whole entry, looked up): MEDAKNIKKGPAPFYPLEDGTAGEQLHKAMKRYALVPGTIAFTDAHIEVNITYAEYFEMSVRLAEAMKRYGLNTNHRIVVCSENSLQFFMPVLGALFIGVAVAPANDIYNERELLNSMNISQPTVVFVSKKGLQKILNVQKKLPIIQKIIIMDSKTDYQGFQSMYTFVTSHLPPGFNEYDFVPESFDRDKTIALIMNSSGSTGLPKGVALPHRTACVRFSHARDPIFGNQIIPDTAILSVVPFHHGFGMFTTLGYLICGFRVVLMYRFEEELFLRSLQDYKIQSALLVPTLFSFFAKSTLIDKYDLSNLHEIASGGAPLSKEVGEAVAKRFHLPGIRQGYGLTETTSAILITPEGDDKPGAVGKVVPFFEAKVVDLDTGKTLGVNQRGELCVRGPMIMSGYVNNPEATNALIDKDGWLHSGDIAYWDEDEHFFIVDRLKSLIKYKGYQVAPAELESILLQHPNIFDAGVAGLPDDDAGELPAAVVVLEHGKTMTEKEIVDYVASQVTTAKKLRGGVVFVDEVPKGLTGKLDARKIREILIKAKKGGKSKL
Outline: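 Biochemical qHTS of compounds, final roughly 60 µM downward over six points, against 10 nM purified firefly luciferase using Km concentrations of substrates (10 uM D-luciferin, 10 uM ATP) in Tris acetate pH 7.5 buffer; luminescence output.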
O=C1N/C(=N\N=C\c2cccnc2)SC1Cc1ccc(SC(F)F)cc1 (stereo not drawn) was tested, and the Potency was active: 10.7 µM. For COc1cccc(OC)c1/C=C/C(=O)NC1CCCCC1, the Potency was inconclusive: 30.1 µM [inhibitor, partial curve, poor fit]. In the case of COc1ccc(CNC(=O)N2CCc3ccccc3C2)cc1, the Potency is reported as inconclusive: 23.9 µM [inhibitor, single point]. In the case of COC(=O)c1sc(-c2ccccc2)cc1NC(C)=O, the Potency is reported as inconclusive: 37.9 µM [inhibitor, partial curve, poor fit]. With COc1ccc2c(c1)c1c(c(=O)n(-c3ccc(OC)c(OC)c3)c(=O)n1Cc1ccc(F)cc1)n2C the “activity change, negative = inhibition” value was inactive: -0.822%. In the case of Cc1cn2c(=O)cc(COC(=O)c3ccc(NC(=O)c4ccccc4C)cc3)nc2s1, the Potency is reported as inconclusive: 10.7 µM [inhibitor, partial curve]. Cc1cc(NS(=O)(=O)c2ccc(NC(=O)Nc3cccc(C(F)(F)F)c3)cc2)no1 was tested, and the “activity change, negative = inhibition” value was inactive: 4.05%. For Cc1cc(C)n(CCNc2nc3nonc3nc2N2CCCCC2)n1, the “activity change, negative = inhibition” value was inactive: 4.09%. In the case of Cn1cc(S(=O)(=O)NC2CCCCC2)c(=O)n(C)c1=O, the “activity change, negative = inhibition” value is reported as inactive: -1.49%. Cc1cc(C)c(NC(=O)CN2CCCCCC2)c(C)c1 was tested, and the Potency was inconclusive: 23.9 µM [inhibitor, single point]. In the case of CCCCCCn1cnc2c(oc3nc4c(cc32)CCCC4)c1=O, the Potency is reported as inconclusive: 2.69 µM [inhibitor, full curve]. For O=C(Nc1ccc([N+](=O)[O-])cc1)N1CCc2ccccc2C1, the Potency was inconclusive: 26.9 µM [inhibitor, single point]. With CCn1c(SCC(=O)N/N=C/c2ccc(C)o2)nnc1-c1ccc(C(C)(C)C)cc1 the Potency was inconclusive: 37.9 µM [inhibitor, single point]. CCN(CC(=O)Nc1ccc2c(c1)OCCO2)C(=O)c1cccc(OCC(C)C)c1 was tested, and the “activity change, negative = inhibition” value was inactive: -0.0766%. With CCn1nccc1C(=O)Nc1ccc(C)c(C)c1 the Potency was inconclusive: 12 µM [inhibitor, partial curve, poor fit]. O=C(Nc1ccc(N2CCCCC2)cc1)c1ccc2ccccc2n1 was tested, and the Potency was active: 4.78 µM. N/C(=N\OC(=O)c1ccc(Br)o1)c1cccnc1 was tested, and the Potency was inconclusive: 26.9 µM [inhibitor, partial curve]. C/C(=N\NC(=O)c1ccc(Br)cc1)c1cccnc1 was tested, and the Potency was active: 13.5 µM. With CCOC(=O)c1cnc2ccc(C)cc2c1Sc1ccccc1 the Potency was inconclusive: 30.1 µM [inhibitor, single point]. For CCN(CC)CCOC(=O)c1ccc(NC(=O)c2cc3c(s2)-c2ccccc2OC3)cc1, the “activity change, negative = inhibition” value was inactive: -11%. With Cc1ccc(CONC(=O)c2cccc(C)c2)cc1 the Potency was inconclusive: 4.26 µM [inhibitor, single point]. In the case of O=C(/C=C/c1ccccc1Cl)OCC(=O)c1ccc[nH]1, the Potency is reported as active: 9.53 µM. Cc1nc(-c2ccc(S(=O)(=O)Nc3ccc(Cl)c(C(F)(F)F)c3)cc2)co1 was tested, and the Potency was inconclusive: 13.5 µM [inhibitor, partial curve]. CCC(C)Oc1ccc(/C=C/c2[nH]c(=O)[nH]c(=O)c2[N+](=O)[O-])cc1OC (stereo not drawn) was tested, and the Potency was inconclusive: 23.9 µM [inhibitor, partial curve]. In the case of CSc1n[nH]c(NCc2ccc(Cl)cc2)n1, the Potency is reported as inconclusive: 26.9 µM [inhibitor, single point]. With C/C(=N\NC(=O)c1nc2ccccn2c1C)c1ccco1 the Potency was inconclusive: 26.9 µM [inhibitor, partial curve, poor fit]. For Cc1ccc2nc(COc3cccc(NC(=O)c4ccccc4Cl)c3)cc(=O)n2c1, the Potency was active: 10.7 µM. With O=C(/C=C/c1ccco1)Nc1cccc2cccnc12 the Potency was active: 15.1 µM. For CC(C)Cc1nnc(NC(=O)CCC(=O)N2CCC(C)CC2)s1, the “activity change, negative = inhibition” value was inactive: 2.32%. COc1c(C)cc(C(=O)C2CCCN(C(=O)/C=C/c3ccccn3)C2)cc1C (stereo not drawn) was tested, and the Potency was inconclusive: 37.9 µM [inhibitor, partial curve, poor fit]. With CC(=O)N1CCN(c2ccc(NC(=O)c3cccc(Cl)c3)cc2)CC1 the Potency was inconclusive: 26.9 µM [inhibitor, partial curve]. With Cc1cccc(C2=N/C(=C\c3cccnc3)C(=O)O2)c1 the Potency was inconclusive: 9.53 µM [inhibitor, partial curve]. Nc1nnc(CC(=O)N/N=C\c2ccc(-c3cccc(Cl)c3)o2)s1 was tested, and the Potency was inconclusive: 37.9 µM [inhibitor, partial curve, poor fit]. With O=C(COC(=O)/C=C/c1ccccc1[N+](=O)[O-])NCC(F)(F)F the “activity change, negative = inhibition” value was inactive: -3.91%. With COc1ccc(C(=O)c2oc3ccccc3c2NC(=O)c2cccc(OC)c2)cc1 the “activity change, negative = inhibition” value was inactive: -2.51%. With CCOC(=O)Nc1cccc(NC(=O)c2ccccc2F)c1 the Potency was inconclusive: 37.9 µM [inhibitor, partial curve, poor fit]. For COc1ccc(-c2nc3c4ccccc4ccn3c2CN2CCOCC2)cc1OC, the Potency was inconclusive: 37.9 µM [inhibitor, single point]. Cc1nc(NCc2ccco2)c2c3c(sc2n1)CCC3 was tested, and the “activity change, negative = inhibition” value was inactive: 1.67%. O=C(Nc1ccc2ncccc2c1)Nc1ccc2ncccc2c1 was tested, and the Potency was active: 6.75 µM. With O=C(Nc1ccc(Cl)c(Cl)c1)Nc1cc(S(=O)(=O)N2CCOCC2)ccc1N1CCCC1 the “activity change, negative = inhibition” value was inactive: 1.82%. CC(C)Cn1c(=O)c2ccccc2n2c(CCC(=O)Nc3ccc(F)cc3)nnc12 was tested, and the “activity change, negative = inhibition” value was inactive: -0.613%. CSc1ccccc1NC(=O)c1noc2c1CCC2 was tested, and the Potency was inconclusive: 21.3 µM [inhibitor, partial curve]. With COc1ccccc1/C=C/c1nc(C#N)c(NCC(C)C)o1 the Potency was inconclusive: 37.9 µM [inhibitor, partial curve, poor fit]. For Cn1c(=O)c2c(c3ccccc31)OC(=O)CC2c1cccc(Cl)c1 (stereo not drawn), the Potency was inconclusive: 9.53 µM [inhibitor, partial curve]. Cc1ccccc1C(=O)Nc1nnc(-c2ccco2)s1 was tested, and the Potency was active: 1.51 µM. With COc1ccc(C2C(C(=O)c3ccco3)=C(O)C(=O)N2CC2CCCO2)cc1 (stereo not drawn) the “activity change, negative = inhibition” value was inactive: 1.31%. In the case of COc1cc(-c2c(C#N)c(N)nc3[nH]c(=S)[nH]c(=O)c23)ccc1O, the “activity change, negative = inhibition” value is reported as inactive: 2.59%. For COc1ccc(-n2cc(CNCCN3CCOC3=O)c(-c3ccccc3Cl)n2)cc1, the Potency was active: 16.9 µM. With C/C(=N\NC(=O)c1ccoc1C)c1ccccc1 the Potency was active: 10.7 µM. With CCOCCn1cnc2sc(C(=O)Nc3ccccc3C(=O)OC)c(C)c2c1=O the “activity change, negative = inhibition” value was inactive: -3.94%. In the case of CC(C)c1cc(C(C)C)c(S(=O)(=O)NNC(=O)c2ccncc2)c(C(C)C)c1, the “activity change, negative = inhibition” value is reported as inactive: 11.5%. With N#CCCn1nc(-c2ccccc2)cc1Nc1ccccc1NC(=O)C(F)(F)F the “activity change, negative = inhibition” value was inactive: 3.04%. In the case of O=C(NC1CCCC1)c1cc(-c2ccc(F)cc2)on1, the Potency is reported as active: 4.78 µM. For CC(C)c1nnc(N2C(=O)C(O)=C(C(=O)c3cccs3)C2c2ccccc2)s1 (stereo not drawn), the Potency was inconclusive: 19 µM [inhibitor, partial curve, poor fit]. For Cc1c(C(=O)NCCC2=CCCCC2)cccc1[N+](=O)[O-], the Potency was inconclusive: 16.9 µM [inhibitor, partial curve]. In the case of O=C(NCC(c1ccco1)N1CCOCC1)C1CCCCC1 (stereo not drawn), the “activity change, negative = inhibition” value is reported as inactive: -2.68%. S=C(NCc1ccccc1)Nc1ccc2cn[nH]c2c1 was tested, and the Potency was inconclusive: 37.9 µM [inhibitor, partial curve, poor fit]. In the case of CCC[n+]1c2ccccc2cc2ccccc21, the Potency is reported as inconclusive: 37.9 µM [inhibitor, single point]. CCOc1ccc2[nH]c(C(=O)N/N=C/c3cc(OC)c(OC)c(OC)c3)cc2c1 was tested, and the Potency was active: 4.78 µM. For O=C(Nc1cccnc1)c1ccccc1NS(=O)(=O)c1ccc(F)cc1, the Potency was inconclusive: 26.9 µM [inhibitor, single point]. With CCc1ccc(S(=O)(=O)Nc2cc(SCC(=O)O)c(O)c3ccccc23)cc1 the Potency was inconclusive: 26.9 µM [inhibitor, single point]. With CCN(c1ccccc1)S(=O)(=O)c1ccc(C(=O)NCc2ccccn2)cc1 the Potency was inconclusive: 26.9 µM [inhibitor, partial curve, poor fit]. With CSc1ncc(CN2CCCC(C(=O)c3ccc(C(C)(C)C)cc3)C2)cn1 (stereo not drawn) the Potency was inconclusive: 26.9 µM [inhibitor, partial curve]. With O=C1CC2(CCN(C(=O)c3ccccc3[N+](=O)[O-])CC2)Oc2ccccc21 the “activity change, negative = inhibition” value was inactive: -0.591%. With CCCCCCc1c(C)nc(-n2[nH]c(C)c(CCO)c2=O)[nH]c1=O the Potency was inconclusive: 37.9 µM [inhibitor, partial curve, poor fit]. COc1cc(SC)ccc1C(=O)NCCc1c[nH]c2ccccc12 was tested, and the Potency was inconclusive: 37.9 µM [inhibitor, single point]. For O=C(NCc1ccco1)c1sc2cc(Cl)ccc2c1Cl, the Potency was inconclusive: 26.9 µM [inhibitor, single point]. In the case of FC(F)(F)c1cccnc1Oc1ccc(C2=NCCS2)cc1, the Potency is reported as inconclusive: 37.9 µM [inhibitor, partial curve, poor fit]. Cc1ccc(C(=O)NC(=S)NCc2cccnc2)cc1C was tested, and the Potency was inconclusive: 33.8 µM [inhibitor, partial curve, poor fit]. With O=C(CNC(=O)c1cccs1)N/N=C/c1ccccc1[N+](=O)[O-] the Potency was inconclusive: 6.75 µM [inhibitor, partial curve, poor fit]. In the case of CCOc1ccc(/C=N/NC(=O)c2ccc(Cn3cc(Br)cn3)o2)cc1, the Potency is reported as active: 6.75 µM. Cc1ccc(S(=O)(=O)N(CC(=O)Nc2ccccc2C(=O)O)c2ccc(Cl)cc2)cc1 was tested, and the Potency was inconclusive: 37.9 µM [inhibitor, single point]. With CC(C)c1ccc(/C=N/NC(=O)C(=O)NCCCN2CCOCC2)cc1 the Potency was inconclusive: 37.9 µM [inhibitor, partial curve, poor fit].
